# Out of some 310,000 compounds screened, about 11,000 (3.5%) were called active. The inconclusive results got no clear call from the source; some entries with a clear call stand among them for comparison. Calls follow the shape of the dose curve; as a rule, active = well fitted inhibition curve with a large enough effect; inconclusive = small, poorly fitted or top-dose-only effect, or effect the other way; inactive = flat fitted curve, though single readings scatter. Potencies of inconclusive entries are left out as doubtful fits.
# Test: VP16 counterscreen qHTS for inhibitors of ROR gamma transcriptional activity;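 also: Gal4-VP16 expression switched on by copper sulfate through the metallothionein promoter; nearly all actives have a fitted effect of over 50% in size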
# Conditions: Drosophila S2 Gal4-VP16 UAS-luciferase, luminescence, 20 h; activity, negative = inhibition: at 53.6 µM (top of the series)
# % is scaled to controls: 0 for no effect and ±100 for the full control effect; potency is read from the fitted curve at half-maximal effect; tags tell the direction and shape of the fitted curve.
SMILES,Potency,"activity, negative = inhibition"
Cc1nnsc1C(=O)NC1CCCc2c1cnn2-c1ccccc1F (stereo not drawn),active: 10 µM,
N#C/C(=C/c1ccc(-c2ccc(S(N)(=O)=O)cc2)o1)c1nc2ccccc2s1,"inconclusive [inhibitor, partial curve, poor fit]",
COC(=O)c1ccc(Cn2nnc3c(=O)[nH]c(C4CCCN(S(=O)(=O)c5ccc(C)cc5)C4)nc32)cc1 (stereo not drawn),,inactive: -20.7%
COc1ccc(C2SCCN2S(=O)(=O)c2ccc(F)cc2)cc1OC (stereo not drawn),,inactive: -11.3%
Cc1cccc(CNc2ncncc2-c2ccccc2CN(C)C)c1,,inactive: 4.17%
Cc1ccc2nc(SCC(=O)N/N=C/c3ccc(C(=O)O)cc3)cc(C)c2c1,"inconclusive [activator, partial curve]",
COc1ccc(-c2cc(C(F)(F)F)nc(SCCC(=O)NCc3ccccc3)n2)cc1,"inconclusive [inhibitor, single point]",
O=C(NCc1ccc(F)cc1)c1cc2ccccc2o1,"inconclusive [inhibitor, partial curve, poor fit]",
Cn1ccc(C(=O)Nc2sc3c(c2C(N)=O)CCCCC3)n1,"inconclusive [inhibitor, single point]",
O=[N+]([O-])c1nn(-c2ccccc2)n(O)c1=NCc1ccc2c(c1)OCO2,"inconclusive [inhibitor, single point]",
COc1ccc(-n2c(-c3ccc(OC)c(OC)c3)n[nH]c2=S)cc1,,inactive: -11.1%
CC1Cc2cc(S(=O)(=O)NCCC(=O)N(C)Cc3ccccc3)ccc2N1C(=O)C1CC1 (stereo not drawn),,inactive: -3.27%
c1csc(-c2nnc(-c3ccc(N4CCOCC4)cc3)o2)c1,"inconclusive [inhibitor, single point]",
Cc1cccc(-n2c(O)c(C=Nc3cc(O)ccc3C)c3ccccc3c2=O)n1,,inactive: -14.6%
Cc1ccc(-n2c(=O)c3sccc3n(Cc3cc(=O)n4ccccc4n3)c2=O)cc1F,"inconclusive [inhibitor, full curve, poor fit]",
CC1=NNC(=O)/C1=C\c1cn(-c2ccccc2)nc1-c1ccc(F)cc1,active: 5.01 µM,
CN(C)c1ccc(C(=O)c2ccc(N(C)C)c3ccccc23)cc1,"inconclusive [inhibitor, single point]",
O=C(O)C1Oc2cc3ccccc3cc2O1,,inactive: -2.02%
Cc1ccccc1Nc1nc(-c2sc(NC(=O)c3cccc(Cl)c3)nc2C)cs1,"inconclusive [inhibitor, single point]",
C=CCOc1c(Br)cc(CNn2c(C)n[nH]c2=S)cc1OCC,"inconclusive [inhibitor, single point]",
CCn1cc(C(=O)NC(=S)Nc2ccccc2Br)cn1,active: 10 µM,
COc1ccc(/C=C2/CCCC(C(=O)C(F)(F)F)=C2O)cc1OC,"inconclusive [inhibitor, single point]",
CCOc1ccc(-c2nnc(NC(=O)CCCOc3cccc(C)c3)o2)cc1,"inconclusive [inhibitor, single point]",
CCCCc1ccc(NC(=S)Nc2ccc(Nc3ccc(OC)cc3)cc2)cc1,active: 1.58 µM,
Cc1ccc(OCC(=O)NCc2ccccn2)c(Br)c1,"inconclusive [activator, single point]",

SMILES,Potency,"activity, negative = inhibition"
CC1=C(C)CS(=O)N(c2ccc(S(N)(=O)=O)cc2)C1 (stereo not drawn),active: 4.47 µM,
O=C(O)c1cc2c(ccc3ccccc32)oc1=O,,inactive: -2.96%
O=C(NC12CC3CC(CC(C3)C1)C2)c1ccc(N2CCNCC2)c([N+](=O)[O-])c1,,inactive: 1.05%
CC1CN(c2ncc(/C=N/NC(=O)c3ccccc3O)s2)CC(C)O1 (stereo not drawn),active: 1.26 µM,
c1ccc(Cn2nnc3c(N4CCCCCC4)ncnc32)cc1,,inactive: -15.9%
CSc1nsc(SC)c1C(=O)NC(=O)Nc1cccnc1,,inactive: -1.42%
CC(C)(C)N1C(=O)c2ccccc2NC(=O)N1Cc1ccccc1,,inactive: 10.4%
CCCCC(NC(=O)c1ccccc1)C(=O)OCC(=O)N1c2ccccc2Sc2ccccc21 (stereo not drawn),,inactive: -7.61%
COc1ccc(CCNC(=O)c2nnn(-c3ccc4c(c3)OCCO4)c2N)cc1OC,"inconclusive [inhibitor, partial curve]",
Cc1ccc(-n2c(Cn3nc(C(F)(F)F)cc3C)n[nH]c2=S)cc1,"inconclusive [inhibitor, single point]",
Cc1ccc(NC(=O)Cn2c(O)c(N=NC(N)=S)c3ccccc32)cc1,"inconclusive [inhibitor, single point]",
COc1ccc(C(=O)Nc2nnc(-c3ccco3)s2)cc1,"inconclusive [inhibitor, partial curve, poor fit]",
C1=C(c2ccc(-c3ccccc3)cc2)Nc2ncnn2C1c1ccco1 (stereo not drawn),"inconclusive [inhibitor, single point]",
CCN(CC(=O)Nc1ccccc1Br)Cc1nc2ccccc2c(=O)[nH]1,"inconclusive [inhibitor, single point]",
O=[N+]([O-])c1ccccc1NCc1c(O)ccc2ccccc12,"inconclusive [inhibitor, single point]",
COc1ccc(OC)c(C2Nc3nc4ccccc4n3C(C)=C2C(=O)Nc2ccc(C)cc2C)c1 (stereo not drawn),"inconclusive [inhibitor, single point]",
c1ccc(COc2ccc(-c3sc(Nc4ccccc4)n[n+]3-c3ccccc3)cc2)cc1,"inconclusive [inhibitor, single point]",
COC(=O)c1c(NC(NC(C)=O)C(Cl)(Cl)Cl)sc2c1CCCC2 (stereo not drawn),"inconclusive [inhibitor, partial curve]",
COc1ccc(/C=C/c2ccc3cccc(O)c3n2)cc1Br,active: 3.16 µM,
CCN1CCN(C(=S)NC(=O)/C=C/c2cccs2)CC1,"inconclusive [inhibitor, single point]",
COC(=O)c1ccc(NC(=O)N2CCC(O)(c3cccnc3)CC2)cc1,"inconclusive [inhibitor, single point]",
O=C(NCc1cccnc1)c1ccc(COc2ccc(Cl)cc2)cc1,"inconclusive [inhibitor, single point]",
O=C(N/N=C/c1ccoc1)c1ccc(Br)cc1,"inconclusive [inhibitor, single point]",
Cc1cccc(-c2nc3cc(NC(=O)C4CCCO4)ccc3o2)c1 (stereo not drawn),"inconclusive [inhibitor, partial curve, poor fit]",
Oc1ccccc1/C=N/Nc1ccnc(SCc2ccccc2)n1,active: 0.316 µM,

SMILES,Potency,"activity, negative = inhibition"
COc1ccc(C(=O)/C(=C\N(C)C)n2nc(C)cc2C)cc1,,inactive: 6.91%
COC(=O)c1cn(CCOc2ccccc2OC)c2ccccc12,"inconclusive [inhibitor, partial curve]",
O=[N+]([O-])c1ccc(Sc2n[nH]c(-c3ccc(Cl)cc3Cl)n2)nc1,active: 7.08 µM,
CCC(=O)NNC(=O)c1cc(COc2cc(Cl)cc(Cl)c2)on1,,inactive: -0.549%
CN(C)c1ccc(-c2n(C)c3ccccc3[n+]2C)cc1,"inconclusive [inhibitor, single point]",
O=c1[nH]cccc1-c1nc2ccccc2n1Cc1ccc(F)cc1,,inactive: -10.8%
CCn1c(=O)c(C(=O)NNC(=O)c2ccccc2F)c(O)c2ccccc21,"inconclusive [inhibitor, single point]",
O=C(CCS(=O)(=O)c1ccccc1)Nc1ccc2c(c1)C(=O)NC2=O,"inconclusive [inhibitor, single point]",
C/C(Cn1nc([N+](=O)[O-])cc1C)=N\NC(=O)COc1c(Cl)cc(Cl)cc1Cl,"inconclusive [inhibitor, single point]",
C=CCn1c(C)cc(C(=O)COc2ncnc3sccc23)c1C,"inconclusive [inhibitor, single point]",
Cn1cnnc1SCC(=O)Nc1sc2c(c1C#N)CCCCC2,"inconclusive [activator, single point]",
C/C(=N\Nc1cc(-c2ccccc2)nc(-c2ccccc2)n1)c1ccc(O)c(C)c1,active: 12.6 µM,
Cc1nnc(SCC(=O)c2cc(C)n(-c3ccc4c(c3)OCO4)c2C)s1,"inconclusive [inhibitor, single point]",
C=CCN=C1S/C(=C/c2cccc([N+](=O)[O-])c2)C(=O)N1CC=C,,inactive: 13.7%
CCCCN1C(=O)C(=O)NC[C@@H]1C(C)CC (stereo partly drawn),,inactive: -7.84%
O=C1CSC(=S)N1/N=C/c1cccc(C(F)(F)F)c1,"inconclusive [inhibitor, single point]",
Cc1ccc(NC(=S)Nc2ccc(F)cc2)cc1,"inconclusive [inhibitor, single point]",
O=C(c1cc(COc2cccc(C(F)(F)F)c2)on1)N1CCC(Oc2cccnc2)CC1,"inconclusive [inhibitor, single point]",
O=C(O)/C=C/C(=O)Nc1ccc(N2CCOCC2)nc1N1CCOCC1,"inconclusive [inhibitor, single point]",
CCC1(C)Cc2c(sc3nc(SC)[nH]c(=S)c23)CO1 (stereo not drawn),active: 6.31 µM,
O=C(COc1ccc2c(-c3ccccc3)cc(=O)oc2c1)Nc1cccnc1,"inconclusive [inhibitor, single point]",
COc1ccccc1CN1CCNC(=O)C1CC(=O)NCC1CCOCC1 (stereo not drawn),,inactive: 4.83%
CN(C)S(=O)(=O)c1ccc(C(=O)Nc2nnc(-c3cccs3)o2)cc1,active: 1.26 µM,

# Source: PubChem BioAssay AID2546 (National Center for Advancing Translational Sciences (NCATS), 2010)
